In PubChem BioAssay AID1794842 (National Center for Advancing Translational Sciences (NCATS), 2023):
Out of some 2,800 compounds screened, fewer than 10 were called active. Calls come from the whole dose curve; as a rule, active = well fitted curve in the direction sought with a large enough effect; inconclusive = small, poorly fitted or top-dose-only effect, or another doubt; inactive = no such curve, though single readings can be large or run the other way. Some of the results follow.

Molecular target: Metallo-beta-lactamase type 2 (Klebsiella pneumoniae) (UniProt C7C422)
Assay: qHTS to identify inhibitors of the New Delhi Metallo-beta-lactamase (NDM): Meropenem screen against the machine-based learning selections. Note: % of control where 0% means no effect.
Conditions: Purified NDM-1, meropenem hydrolysis, absorbance 300 nm; at 38.4 µM (top of the series) unless noted
Outline: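 Hydrolysis by 2 nM NDM-1 was followed by absorbance after >30 min compound preincubation in HEPES pH 7.0 buffer with 1 uM Zn2SO4. For nitrocefin (16.7 uM, 15 min, 485 nm) and meropenem (50 uM, 30 min, 300 nm), each substrate ran on separate plates.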

Chain of UniProt C7C422 (C7C422 whole entry, looked up): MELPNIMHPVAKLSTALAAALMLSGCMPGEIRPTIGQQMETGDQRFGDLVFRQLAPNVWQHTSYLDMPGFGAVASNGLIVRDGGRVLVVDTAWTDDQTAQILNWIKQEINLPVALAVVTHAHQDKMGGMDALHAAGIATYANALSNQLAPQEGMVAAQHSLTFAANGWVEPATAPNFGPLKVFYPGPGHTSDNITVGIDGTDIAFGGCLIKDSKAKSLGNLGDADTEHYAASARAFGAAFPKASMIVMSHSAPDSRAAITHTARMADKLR

Activity change, negative = inhibition, inactive:
C[S+](=O)([O-])Nc1cccc(Nc2cnc3ccc(-c4ccccc4)nn23)c1 6.77% [at 57.5 µM]
Cc1ccc(C(=O)NC2CCN(c3ccc(F)cc3)C2=O)s1 (stereo not given) 0.556%
O=C1C(c2ccccc2)CC2(CCN(c3cnccn3)CC2)CN1C1CC1 (stereo not given) -3.61%
O=C(NC[C@H]1O[C@@H]2C[C@@H](CC(=O)N3CCOCC3)O[C@@H]2[C@@H]1O)Nc1cccs1 3.46% [at 57.5 µM]
Cc1nc(C(C)C)sc1C(=O)N1CCC(=O)N(CC2CC2)C(C(C)C)C1 (stereo not given) -0.465%
C[C@@H](NS(=O)(=O)c1ccccc1)c1onc(-c2ccccc2)c1C(=O)O 5.46% [at 57.5 µM]
COCCNC(=O)Cc1c[nH]c2ncc(-c3cccnc3)cc12 66.7% [at 57.5 µM]
COc1ccc(-c2cc(N3CCCC(NC(=O)c4cccn4C)C3)n[nH]2)cc1 (stereo not given) -0.774%
CNC(=O)c1cccc(-c2cnc(Nc3cccc(F)c3)c3c2CCO3)c1 4.96% [at 57.5 µM]
CN1C[C@@H]2CCCN3CCC[C@@H]([C@H]23)[C@H]1CCCC(=O)Nc1ccc2c(c1)OCCO2 1.41%
CC1=C[C@@H](CNC(=O)COc2ccccc2)[C@H](C(C)C)C[C@H]1Cc1nnc(-c2cncn2C)o1 1.85%
O=C(NC[C@H]1O[C@@H](CO)[C@@H](O)[C@H]1N1CCOCC1)Nc1ccc(OC(F)(F)F)cc1 29.4%
CN1[C@@H](CCC(=O)N2CCC(O)CC2)CNC(=O)[C@@H]2[C@H]1CCN2Cc1cccc(OC(F)(F)F)c1 0.921%
O=C(O)[C@H]1C[C@@H](C(=O)NCc2ccncc2)CN(C2CCOCC2)C1 11.6%
Cc1ccc(C2(O)CCN(C(=O)c3cnn4cc(CCO)cnc34)CC2)nc1 0.707%
COCC(=O)N[C@H]1C[C@H]2C(=O)NC[C@@H](CCC(=O)N3CCN(c4ccccn4)CC3)N2C1 5.83%
O=C(CN1CC2CC(C1)[C@H]1CCCC(=O)N1C2)NCc1ccc2c(c1)OCO2 (stereo not given in full) 0.0742%
O=C(NCc1csc(-c2cnccn2)n1)C1NCCc2[nH]cnc21 (stereo not given) 15.2%
COc1ccc2nc(CO[C@H]3CN(C4CCC4)C[C@H]3F)[nH]c2c1 -0.689% [at 57.5 µM]
O=C1CO[C@H]2CN(c3nccc(C(F)(F)F)n3)C[C@H]2N1Cc1ccc(F)cc1 -1.3% [at 57.5 µM]
O=C(O)c1cc(Br)cc(S(=O)(=O)NC2CCCCC2)c1 1%
NC(=O)c1cccc(-c2cc3c(cn2)CN(Cc2ccccc2)CCN3)c1 -0.317% [at 57.5 µM]
Cc1cccn2cc(C(=O)N3CCC4(CCCN(CC5CCC5)C4=O)C3)nc12 (stereo not given) 0.979%
CC[C@H]1CN(C(=O)Nc2ccccc2)CC[C@H]1CC(=O)N(C)CC#N -1.89% [at 57.5 µM]
COc1cccc([S+](=O)([O-])N2CCC3(CC2)C(=NC2CCCCC2)NC(=O)N3c2cccnc2)c1 -0.117%
COCC(=O)NC[C@@H]1C=C(C)[C@H](Cc2nc3ccc(C(=O)OC)cc3[nH]2)C[C@H]1C(C)C -3.43% [at 57.5 µM]
O=C(c1ccco1)N1C[C@@H]2C(CN(CC#Cc3ccccc3)C3CC3)[C@@H]2C1 (stereo not given in full) 0.121%
C[C@H]1CCCN1C(=O)c1nnc(CNc2ccc(C(=O)O)cc2)n1-c1ccccc1 17.9% [at 57.5 µM]
COc1cccc(-c2nc3c([nH]2)CN(c2cc(C4CC4)ncn2)CC3)c1 8.18%
N#Cc1cccc(NC(=O)O[C@@H]2CO[C@H]3[C@@H]2OC[C@@H]3Nc2nccc(-c3ccc4c(c3)OCO4)n2)c1 0.41%
Cc1nnc(CN2CCN(C)C3(CCC(=O)N(CC(=O)O)CC3)C2)o1 (stereo not given) 10.7%
COc1ccc(CN2C(=O)[C@@H]3C[C@@H](CN3C3COC3)Oc3ccccc32)cc1 0.128% [at 57.5 µM]
NCCc1cccc(CN2CCCC(COc3ccccc3F)C2)c1 (stereo not given) 0.683%
Cc1ccccc1C(=O)N1C[C@@H](F)C[C@H]1C(=O)N1CCOCC1 -0.824%
COc1ccc2nc3n(c2c1)[C@@H](CNC(=O)NC(C)C)COC3 -1.99% [at 57.5 µM]
Cc1ccc(O)c(CN2CC[C@@H](c3ccc4ccccc4c3)[C@H](O)C2)n1 0.0609%
O=C1CO[C@H](c2ccc(NS(=O)(=O)c3cccc(F)c3)cc2)[C@@H](CO)N1Cc1ccncc1 0.894%
C=CCNC(=O)N[C@H]1CCN(C(=O)CC(C)(C)C)[C@@H]1C(=O)N[C@@H](C(=O)OC)C(C)C 3.86% [at 57.5 µM]
CC(C)CN(C(=O)CC1COc2ccc(C(=O)N(C)C)cc2N1C)C1CC1 (stereo not given) -5.85%
CN1CCN(c2nc3c(s2)CN(C(=O)c2ccccc2)CC3)CC1 1.43%
C[C@@H](NC(=O)[C@@]1(O)C[C@@H](O)[C@H](O)[C@@H](NC(=O)Nc2ccc(OC(F)(F)F)cc2)C1)C(N)=O -4.53%
Cn1ccnc1CNCC1(COc2cccnc2)C[C@@H](O)[C@@H](O)C1 (stereo not given in full) 21%
c1ccc(N2CC3(CN(CC4CC4)CC3CNc3cccnc3)C2)cc1 (stereo not given) 0.558% [at 57.5 µM]
CC(=O)c1[nH]c(C)c(C(=O)N2CCC3(CC2)[C@H](O)C[C@@H]3OCCO)c1C 21%
CN(C)C[C@H]1C[C@@H](CO)CN(C(=O)c2ccccc2OC(F)(F)C(F)F)C1 0.416%
CN(Cc1cc(-c2cccs2)n[nH]1)C(=O)c1cn(CCN)nn1 0.0937%
CN(CCc1ccccn1)[C@@H]1[C@H](O)[C@H](CO)O[C@@H]1CNS(=O)(=O)c1cccs1 48.1%
COc1ccc(-c2cc(-c3cccc(O)c3)cn3cncc23)cc1 26.6% [at 57.5 µM]
Cn1nccc1C(=O)N1CCC(Cc2nc(C3CCOCC3)no2)CC1 0.878%
COC[C@H]1CCCN1C(=O)[C@@H](C)C1CC[C@@]2(C)CC[C@H](NC(=O)CC(C)(C)C)[C@@H](C)[C@@H]2[C@H]1O (stereo not given in full) 0.035%
Oc1ccccc1-c1cnc2n[nH]c(-c3ccc4c(c3)OCO4)c2n1 7.17% [at 57.5 µM]
Cc1cc(C)cc(-c2ccc(C(=O)N3CCC(Oc4cccnc4)CC3)cn2)c1 -0.198%
COc1cccc(CN[C@@H]2CCC[C@@H](C(=O)NC3CCOCC3)CC(=O)N(C)C2)c1 1.5% [at 57.5 µM]
N#Cc1cccnc1N1CCC(NC(=O)c2ccc3cccc(F)c3n2)CC1 0.691%
COCCOc1ncccc1-c1noc([C@@H]2CCCN2CC(C)(C)C)n1 -2.19% [at 57.5 µM]
CSc1ccc(-c2ccc3c(c2)C(=O)N2CCN(C(=O)CCC(=O)O)C[C@@H]2C(=O)N3)cc1 11%
N#Cc1ccc(C(=O)N2C[C@@H]3C[C@H](C2)c2c(/C=C/c4ccc(Cl)cc4)ccc(=O)n2C3)cc1 -0.813%
CCCc1noc(-c2ccn3c(CNC(=O)c4cccc(N(C)C)c4)nnc3c2)n1 -1.1%
CS(=O)(=O)c1ccc(CN2C[C@H](O)C[C@H]2c2nc(-c3cnccn3)no2)cc1 -0.572% [at 57.5 µM]
c1ccc(-c2ccc3ncc(Nc4cccnc4)n3n2)cc1 16.9% [at 76.7 µM]
O=C(Nc1ccccc1Cl)N1CCC(Oc2ncccc2C(=O)N2CCCCC2)C1 (stereo not given) -1.51%
O=C(C1CC(=O)N(c2n[nH]c3ccccc23)C1)N1CCC(c2nc3ccccc3[nH]2)CC1 (stereo not given) -0.115%
CC(=O)Nc1cccc(-c2n[nH]c3c2CC(=O)N(c2ccccc2)C3)c1 8.26% [at 57.5 µM]
Oc1cccc(-c2cc3c(cn2)NCCN(Cc2ccccc2)C3)c1 7.87% [at 57.5 µM]
CN(C)c1ccc(-c2nnnn2[C@H]2CO[C@H]3[C@@H]2OC[C@@H]3NS(=O)(=O)c2ccc3ccccc3c2)cc1 6.07%
CC(C)(C)c1nnc([C@H]2CCN(C(=O)C3CC3)C2)o1 1.24% [at 76.7 µM]
Cc1ccccc1N1Cc2c(NCC3CC3)ncnc2N(C)CC1=O -3.06%
CCN1CC(C(=O)N(C)Cc2ccc(Oc3ccccc3)cc2)CCC1=O (stereo not given) 1.3%
O=C1OC[C@@H]2CCN(Cc3ccc4c(c3)OCO4)Cc3ccc(F)cc3N12 -0.249% [at 57.5 µM]
O=C(NCCCc1nc2ccc(Cl)cc2[nH]1)[C@H]1CCC[C@@H](O)C1 -4.03%
COCc1noc([C@@H]2CN(C(=O)c3cccc(Cl)c3)C[C@H]2CO)n1 -1.55%
COc1ccc(-n2nc(C)c([C@H]3C=C[C@@H](OC(=O)Nc4cccc(F)c4)C3)c2C)cc1 2.67% [at 57.5 µM]
Cc1ccsc1-c1[nH]nc2ncc(-c3cccc(CO)c3)nc12 6.68% [at 57.5 µM]
O=C1CCN(Cc2ccccc2OCC(O)CN2CCCCC2)CCN1 (stereo not given) 0.0924%
Cn1cc(CN(Cc2c(C(=O)N3CCCC3)nc3sccn23)C2CC2)cn1 -0.174%
